Reference: US20070280957A1, “Change of the Load State of Mhc Molecules” (priority 2004, published 2007)

Assays:
[1] = test system: HLA-DR molecules with a deep or flat P1 pocket (β86G and β86V); experiment: T-cell assays on HLA-DR molecules with a deep or flat P1 pocket; type: cell-based, human; conditions: dose-activity curves
Protocol: In the following, the catalysis of HLA loading by pCP was determined for the purposes of comparison. […] These dose-activity curves show the activity of the two catalysts on HLA-DR molecules with a deep or flat P1 pocket {β86G and β86V} as well as on the mouse MHC class II molecules H2-Ek and H2-Ak.

[2] = test system: HLA-DR1 (DRB1*0101) transgenic mice; experiment: Vaccination with ABL protein domain in complete Freund's adjuvant, ELISPOT of lymph node cells; type: in vivo; conditions: 10 mM as additive to antigen emulsion in complete Freund's adjuvant, subcutaneous, 12 days
Protocol: In this example, HLA-DR1 (DRB1*0101) transgenic mice were immunised with 10 mg of a domain of the ABL protein prepared by recombinant methods. The immunisation was carried out by subcutaneous administration of an emulsion of the antigen in complete Freund's adjuvant, which in the case of one group was additionally supplemented with 10 mM AdEtOH. The immune response triggered by the vaccination was then checked 12 days later by means of an ELISPOT assay. To this end, in each case about 10^6 lymph node cells/well were transferred to culture plates coated with membrane filters and restimulated with titrated amounts of the antigen. Activation of a cell leads to the release of cytokines, such as, for example, IFN-g, which can be detected on the membrane by means of corresponding antibodies (see FIG. 15).

**Q.** For `OCCC12CC3CC(CC(C3)C1)C2` [I 1, 2-(1-adamantyl)-ethanol], which “activity on HLA-DR molecules with deep or flat P1 pocket” value [1] is on record?
**A.** Its value is “greater but is directed towards those HLA-DR molecules which possess the deep P1 pocket”.

**Q.** What about the “T-cells reacting against the ABL domain (ELISPOT spots)” value [2] of the same compound?
**A.** Its value is “markedly more T-cells”.

**Q.** What about the “efficiency of the vaccination” value [2] of the same compound?
**A.** The value was “considerable increase in the efficiency of the vaccination”.
